A collection of fitness landscapes (doi:10.1016/j.celrep.2020.107928)
The full ranking holds about 81,000 sequences; the median of “one-hybrid fitness for binding parS DNA” is about -0.17, and the highest 2% start at about 0.51. This is one part of the list.

B1: Caulobacter ParB omega fusion; a variant is named by its letters at X, in order, B8GW30 (parent)
chain: MESVVVGEPGMSEGRRGLGRGLSALLGEVDAAPAQAPGEQLGGSREAPIEILQRNPDQPRRTFREEDLEDLSNSIREKGVLQPILVRPSPDTAGEYQIVAGERAWRAAQRAGLKTVPIMVRELDDLAVLEIGIIENVQRADLNVLEEALSYKVLMEKFERTQENIAQTIGKSXSHVANXMRLLXLPDEVQSYLVSGELTAXHARAIAAAADPVALAKQIIEGGLSVRETEALARKAPNLSAGKSKGGRPPRVKDTDTQALESDLSSVLGLDVSIDHRGSTGTLTITYATLEQLDDLCNRLTRGI

Variants of: B1
Assay: one-hybrid fitness for binding parS DNA (scaled: cognate 1, non-cognate 0); higher = stronger binding
Conditions: with parS DNA site
Outline: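 Fitness here means the log change in variant-to-wild-type read ratio between plasmids sequenced before and after selection. That scale was set so cognate equals 1 and non-cognate equals 0. The selection was a bacterial one-hybrid screen of Caulobacter ParB libraries, four specificity codons randomised, in E. coli USO carrying a HIS3 reporter with the site 19 bp from the promoter, grown 48 hours at 37°C on M9-minus-histidine with 0.1 mM IPTG and 5 mM 3-AT.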

Variant | one-hybrid fitness for binding parS DNA
QLCI | ≤ 0.2
QHFR | ≤ 0.2
NATF | ≤ 0.2
GTWE | 0.297
YCSV | ≤ 0.2
KYMG | ≤ 0.2
ENTG | ≤ 0.2
NHAI | ≤ 0.2
THQT | ≤ 0.2
GLGG | ≤ 0.2
FCML | ≤ 0.2
LTRE | ≤ 0.2
QGHG | ≤ 0.2
IFMG | ≤ 0.2
SVMV | ≤ 0.2
RRQR | ≤ 0.2
HHTT | ≤ 0.2
SPCV | ≤ 0.2
PASL | ≤ 0.2
GKKT | ≤ 0.2
RFYL | ≤ 0.2
TDPC | ≤ 0.2
YSNC | 0.215
TICM | ≤ 0.2
IHIS | ≤ 0.2
LTFC | ≤ 0.2

Variant | one-hybrid fitness for binding parS DNA
DFLV | ≤ 0.2
SLHW | ≤ 0.2
YTKR | ≤ 0.2
LLQC | ≤ 0.2
RGRQ | ≤ 0.2
NMTN | ≤ 0.2
CRKA | ≤ 0.2
NGGT | ≤ 0.2
QLKA | ≤ 0.2
RNRE | ≤ 0.2
IADG | ≤ 0.2
EKRH | ≤ 0.2
LCRL | ≤ 0.2
SWPG | ≤ 0.2
QPEM | ≤ 0.2
KLRM | ≤ 0.2
IDQG | ≤ 0.2
RSLM | 0.32
QQSD | ≤ 0.2
GHRR | ≤ 0.2
YCMR | ≤ 0.2
RMGE | ≤ 0.2
TYRF | ≤ 0.2
HYTV | ≤ 0.2
ARPR | ≤ 0.2
VMQS | ≤ 0.2

Variant | one-hybrid fitness for binding parS DNA
RMAF | 0.253
GPTI | ≤ 0.2
SCHW | ≤ 0.2
QENV | ≤ 0.2
KVNC | ≤ 0.2
EKSS | ≤ 0.2
ISAY | ≤ 0.2
LYKN | ≤ 0.2
SINR | ≤ 0.2
QVRR | ≤ 0.2
PPTT | ≤ 0.2
SFWF | ≤ 0.2
HAWC | ≤ 0.2
HMCS | ≤ 0.2
CAPC | ≤ 0.2
SPQA | ≤ 0.2
NHND | ≤ 0.2
RCRW | 0.337
IMAC | ≤ 0.2
FETR | ≤ 0.2
DSPS | ≤ 0.2
QGGL | ≤ 0.2
PCES | ≤ 0.2
FISR | ≤ 0.2
